Where “and” joins values, the source holds several entries; their conditions need not be identical. Identical values can stand only once. Hit rate of the full screen: of about 280,000 compounds, about 1,100 (0.39%) were called active. Inconclusive means that the source gave no clear call. Such entries were picked first, then a sample of the others. Calls follow the shape of the dose curve; as a rule, active = well fitted inhibition curve with a large enough effect; inconclusive = small, poorly fitted or top-dose-only effect, or effect the other way; inactive = flat fitted curve, though single readings scatter. No potency is given beside an inconclusive call; the fits are too rough.
The molecules below were run against Microtubule-associated protein tau (Homo sapiens) (UniProt P10636) (assay: qHTS for Inhibitors of Tau Fibril Formation, Fluorescence Polarization). Conditions: K18 P301L tau heparin fibrillization, Alexa594 FP, 6 h; series mostly up to 57.7 µM.
Method in brief: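 Read-out: fluorescence polarization of Alexa 594-labeled tau (0.24 uM), 555 nm excitation, 632 nm emission. Mixtures held 15 uM unlabeled K18 P301L, compound and 20 uM heparin, pH 7 acetate buffer, incubated 6 hr at 37 C.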
Also: nearly all actives have a fitted effect of over 55% in size.
Potency is read from the fitted curve at half-maximal effect; tags tell the direction and shape of the fitted curve.

UniProt P10636, sequence (P10636 whole entry, looked up): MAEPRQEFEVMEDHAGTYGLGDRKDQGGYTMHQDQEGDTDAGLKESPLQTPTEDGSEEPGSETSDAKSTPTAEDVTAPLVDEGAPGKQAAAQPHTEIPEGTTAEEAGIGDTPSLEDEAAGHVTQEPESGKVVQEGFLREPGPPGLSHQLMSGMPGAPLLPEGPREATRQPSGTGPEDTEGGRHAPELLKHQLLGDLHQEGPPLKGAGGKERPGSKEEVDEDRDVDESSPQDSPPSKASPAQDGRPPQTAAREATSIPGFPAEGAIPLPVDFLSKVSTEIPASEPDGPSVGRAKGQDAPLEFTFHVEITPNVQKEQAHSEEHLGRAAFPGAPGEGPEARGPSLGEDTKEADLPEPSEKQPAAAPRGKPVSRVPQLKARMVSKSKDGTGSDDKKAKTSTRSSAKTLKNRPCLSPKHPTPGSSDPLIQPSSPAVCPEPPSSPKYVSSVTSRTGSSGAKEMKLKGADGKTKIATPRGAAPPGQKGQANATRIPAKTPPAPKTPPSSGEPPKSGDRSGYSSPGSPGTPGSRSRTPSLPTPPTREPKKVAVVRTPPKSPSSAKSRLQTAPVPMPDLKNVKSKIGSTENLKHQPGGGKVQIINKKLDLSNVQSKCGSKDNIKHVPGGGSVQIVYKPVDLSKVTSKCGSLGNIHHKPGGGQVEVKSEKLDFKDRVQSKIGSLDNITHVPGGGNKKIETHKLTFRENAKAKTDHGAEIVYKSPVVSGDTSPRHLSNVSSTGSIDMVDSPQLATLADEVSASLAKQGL

Q: `Cc1ccc(C(=O)Nc2cc(C)c(OCC(=O)N3CCOCC3)c(C)c2)cc1` was tested. Which Potency did it give?
A: inconclusive [inhibitor, single point]

Q: Which Potency does the source give for `Cc1cc(NC(=S)NC(=O)/C=C/c2ccc(S(=O)(=O)N3CCOCC3)cc2)ccc1Br` here?
A: inconclusive [inhibitor, single point]

Q: For `CSC1=NS(=O)(=O)c2c(C)nn(C)c2S1`, which Potency is on record?
A: inconclusive [inhibitor, partial curve]

Q: With `O=c1cc(-c2ccccc2Cl)oc2c(NS(=O)(=O)c3cc(Cl)cc(Cl)c3O)ccc(O)c12` as the molecule, how does the Potency read?
A: active: 31.6 µM

Q: With `COc1ccc(C2NC(=O)C(C#N)=C(S)N2c2cccc(C)c2)cc1OC` (stereo not drawn) as the molecule, how does the Potency read?
A: inconclusive [inhibitor, single point]

Q: Which Potency does the source give for `COc1cc2cc[n+]3cc4c(OC)c(OC)ccc4cc3c2cc1OC` here?
A: inconclusive [inhibitor, partial curve, poor fit]

Q: `CN(C)/C=C1\C=C(c2ccccc2)OC1=O` was tested. Which Potency did it give?
A: inconclusive [inhibitor, single point]

Q: Which Potency does the source give for `CC1=C(c2ccc(C)c(C)c2)S(=O)(=O)N=C1N1CCC(C(=O)N2CCC(C)CC2)CC1` here?
A: inactive

Q: How did the Potency turn out when `CCOC(=O)/C=C/C(=O)Nc1ccc(S(=O)(=O)Nc2c(C)cc(C)cc2C)cc1` was run?
A: inconclusive [inhibitor, single point]

Q: For `Cc1ccccc1OCc1ccc(-c2nc(C#N)c(NCc3cccnc3)o2)o1`, which Potency is on record?
A: inconclusive [activator, full curve]

Q: For `CCCNC(=O)C(=O)NCCC1=CCCCC1`, which Potency is on record?
A: inactive

Q: `CCOc1ccc(NC(=O)C2CCC(CNS(=O)(=O)c3ccc(Br)s3)CC2)cc1` (stereo not drawn) was tested. Which Potency did it give?
A: inconclusive [inhibitor, full curve, poor fit]

Q: How did the Potency turn out when `N.N.O=C(O)C1(C(=O)O)CCC1.[Pt]` was run?
A: active: 3.16 µM and active: 2.82 µM

Q: How did the Potency turn out when `CC(C)(C=O)C1=CC(=O)c2ccccc2C1=O` was run?
A: inconclusive [inhibitor, single point]

Q: For `Cn1cc(C(=O)N/N=C/c2ccc(Br)c([N+](=O)[O-])c2)c2ccccc21`, which Potency is on record?
A: inconclusive [inhibitor, partial curve, poor fit]

Q: With `Oc1ccccc1-c1nc(/C=C/c2ccccc2Cl)nn1-c1ccccc1` as the molecule, how does the Potency read?
A: inconclusive [inhibitor, partial curve]

Q: `Nc1nc(CSc2nc3ccccc3s2)nc(N2CCOCC2)n1` was tested. Which Potency did it give?
A: inactive

Q: How did the Potency turn out when `CC(OC(=O)CCCCCN=C1NS(=O)(=O)c2ccccc21)C(=O)Nc1cc(Cl)cc(Cl)c1` (stereo not drawn) was run?
A: inconclusive [inhibitor, partial curve, poor fit]

Q: With `Cc1sc2ncnc(NCC(c3ccco3)N(C)C)c2c1C` (stereo not drawn) as the molecule, how does the Potency read?
A: inconclusive [inhibitor, single point]

Q: For `N#Cc1sc2nc(C3CC3)cc(-c3ccc(Cl)cc3)c2c1N`, which Potency is on record?
A: inconclusive [inhibitor, partial curve, poor fit]

Q: How did the Potency turn out when `CC1CCCCN1S(=O)(=O)c1cccc(S(=O)(=O)N2CCOCC2)c1` (stereo not drawn) was run?
A: inactive

Q: For `Cc1ccc(/C=C/C(=O)NCc2ccc(S(N)(=O)=O)cc2)o1`, which Potency is on record?
A: inconclusive [inhibitor, partial curve]

Q: For `Cc1cccc(-[n+]2c(C)cc(C)c3c(=O)[nH]c(=O)[nH]c32)c1`, which Potency is on record?
A: inactive

Q: With `O=C(CSc1nnc(SCc2ccccc2Cl)s1)N/N=C/c1c[nH]c2ccccc12` as the molecule, how does the Potency read?
A: inconclusive [activator, single point]

Q: `CCOC(=O)c1c(C)[nH]c(C)c1S(=O)(=O)N1CCCC(C(=O)NCc2cccc(C)c2)C1` (stereo not drawn) was tested. Which Potency did it give?
A: inactive

Q: How did the Potency turn out when `Cc1[nH][nH]c(=O)c1C(c1c(C)[nH][nH]c1=O)c1cn(Cc2ccc(F)cc2)c2ccccc12` was run?
A: inconclusive [inhibitor, partial curve]

Q: For `O=CN/C=C/c1cc(O)ccc1O`, which Potency is on record?
A: inconclusive [inhibitor, partial curve]

Q: `Cn1nc(-c2ccccc2)cc1NC(=O)Nc1ccc(F)cc1` was tested. Which Potency did it give?
A: inconclusive [inhibitor, single point]

Q: For `O=C(CN1C(=O)COc2ccc(Cl)cc21)Nc1ccc(F)cc1`, which Potency is on record?
A: inactive

Q: For `CCN(C(=O)c1nn(-c2ccc(OC)c(Cl)c2)c(=O)c2c1c1ccccc1n2C)c1cccc(C(F)(F)F)c1`, which Potency is on record?
A: inconclusive [inhibitor, partial curve]

Q: Which Potency does the source give for `Cc1ccc(NC(=O)Cn2ncn3c(cc4ccccc43)c2=O)cc1F` here?
A: inconclusive [inhibitor, single point]

Q: `CCC1=C(c2ccc(C)cc2)S(=O)(=O)N=C1N1CCC(C(=O)Nc2ccccc2F)CC1` was tested. Which Potency did it give?
A: inactive

Q: With `CC1(C)CC(=O)C=C(NCCN2CCN(C(=O)Nc3ccc(Cl)c(Cl)c3)CC2)C1` as the molecule, how does the Potency read?
A: inconclusive [inhibitor, full curve]

Q: `COCCCNC(=O)c1cc(Sc2nnc(C)s2)nc2ccccc12` was tested. Which Potency did it give?
A: inactive

Q: Which Potency does the source give for `COc1cc([N+](=O)[O-])ccc1NC(=O)COC(=O)c1n[nH]c2ccccc12` here?
A: inconclusive [inhibitor, single point]

Q: How did the Potency turn out when `Cn1c(=O)oc2cc(S(=O)(=O)Nc3cccc(C(=O)O)c3)ccc21` was run?
A: inactive

Q: How did the Potency turn out when `CCNC(=O)COC(=O)c1cc(-c2ccco2)nc2ccccc12` was run?
A: inconclusive [inhibitor, full curve, poor fit]

Q: Which Potency does the source give for `Cc1sc2nc(CN3CCOCC3)nc(N3CCC(C(N)=O)CC3)c2c1C` here?
A: inactive

Q: For `CCc1ccc(NC(=O)Cn2c(=O)n(Cc3ccco3)c(=O)c3oc4ccccc4c32)cc1`, which Potency is on record?
A: inconclusive [inhibitor, partial curve]

Q: How did the Potency turn out when `Nc1nc(-c2ccc3c(c2)OCCO3)cs1` was run?
A: inconclusive [activator, partial curve, poor fit]

Q: For `CCOC(=O)c1c(NC(=O)c2cc(-c3cccc(OC)c3)on2)sc2c1CCCC2`, which Potency is on record?
A: inactive

Q: How did the Potency turn out when `Cn1c(NCc2ccccc2)nc2c1c(=O)n(Cc1ccc(Br)cc1)c(=O)n2C` was run?
A: inconclusive [activator, partial curve]

Q: With `CCOC(=O)N1CCC(NS(=O)(=O)c2ccc3c(c2)CCN3C(C)=O)CC1` as the molecule, how does the Potency read?
A: inactive
